Experimental data: PubChem BioAssay AID1347073 (National Center for Advancing Translational Sciences (NCATS), 2019)
Screen size: about 45,000 compounds; about 200 (0.44%) were called active. About 7% were inconclusive and are not listed. Calls follow the shape of the dose curve; as a rule, active = well fitted activation curve with a large enough effect; inconclusive = small, poorly fitted or top-dose-only effect; inactive = no such curve, though single readings can be large or run the other way. This is one part of the list.

Assay: qHTS of TDP-43 Inhibitors: NCGC Sytravon Library Screen; also: nearly all actives have a fitted effect of over 55% in size; as to growth rescue (activation): 0% is about no effect
Conditions: yeast TDP-43 toxicity rescue, BacTiter-Glo growth, 24 h; series mostly up to 46.1 µM; growth rescue (activation): at the top concentration
How it was run: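 TDP-43-expressing yeast, pregrown in raffinose, seeded at OD600 0.02 in galactose medium with compound for 24 hr at 30 deg C. Growth read by BacTiter-Glo luminescence, so rescue of toxicity appears as activation.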
Potency is read from the fitted curve at half-maximal effect.

Structure (SMILES) | growth rescue (activation) | Potency
Cn1nccc1C(=O)OCC(=O)Nc1ccc(S(N)(=O)=O)cc1 | inactive: 0.582% | –
Cc1cc(C(=O)N2CCCC(C(=O)c3cccc(C(F)(F)F)c3)C2)nc(C)n1 (configuration not stated) | inactive: 13.3% | –
Cc1nnc(NN2CCOCC2)[nH]c1=O | inactive: 8.54% | –
Cc1nc(NC(=O)c2ccc(Cl)cc2)sc1Cc1ccc2c(c1)OCO2 | inactive: -0.724% | –
COc1ccc(C(=O)c2cc([N+](=O)[O-])ccc2N2CCCC2)cc1 | inactive: 1.22% | –
COc1ccc(OC)c(Cc2nnc(CCC(=O)NC3CCCCCCC3)o2)c1 | inactive: 11.2% | –
CC(/C=N/n1c(-c2ccc(C)cc2)n[nH]c1=S)=C\c1ccco1 | inactive: 8.98% | –
CC1CCCCC1NC(=O)CCCCn1c(=O)[nH]c2ccsc2c1=O (configuration not stated) | inactive: 5.48% | –
N#CCc1nc(-c2cc3ccccc3oc2=O)cs1 | inactive: -5.9% | –
Cc1cccc(N(CC(=O)Nc2ccccc2-c2ccccc2)S(=O)(=O)c2ccccc2)c1C | inactive: -18.5% | –
CCOC(=O)C1CCN(CC(O)COCc2cccs2)CC1 (configuration not stated) | inactive: 3.12% | –
Cc1cnc(NC(=O)c2cc(S(=O)(=O)N(C)C)ccc2N2CCCC2)s1 | inactive: -10.5% | –
COc1ccc(C(=O)OCC(=O)N2CCN(C(=O)c3ccco3)CC2)cc1OC | inactive: -6.38% | –
COc1ccc(C)cc1Nc1nc(C)nc2c1oc1ccccc12 | inactive: 13.4% | –
O=C(Nc1cccc(Oc2ccccc2)c1)C1Cc2c(-c3ccc4c(c3)OCO4)ccnc2O1 (configuration not stated) | inactive: 24.3% | –
Fc1ccc(-c2csc3ncnc(Cl)c23)cc1 | – | active: 14.1 µM
O=c1[nH]c(/C=C/c2ccccc2OC(F)F)nc2c1cnn2-c1ccccc1 | inactive: -0.191% | –
CC(C(=O)Nc1ccc(C#N)cc1)N(C)CC(=O)N(C)c1c(N)n(Cc2ccccc2)c(=O)[nH]c1=O (configuration not stated) | inactive: -3.93% | –
O=C(CCc1ccc(S(=O)(=O)NCc2ccccc2)cc1)NCC1CCCO1 (configuration not stated) | inactive: -5.39% | –
Cc1ccc(N2C(=O)Nc3ccc(Br)cc3C2(O)C(=O)NCCN(C)C)cc1C (configuration not stated) | inactive: -5.26% | –
NS(=O)(=O)c1cccc(NC(=O)COC(=O)/C=C/c2nc3ccccc3s2)c1 | inactive: 15.1% | –
COC(=O)c1ccc(C2C3=C(Nc4nnnn42)c2ccccc2OC3)cc1 (configuration not stated) | inactive: 23.2% | –

Structure (SMILES) | growth rescue (activation) | Potency
CC(C)CC(=O)NC(=S)Nc1ccc(CN2CCOCC2)cc1 | inactive: 1.24% | –
COc1ccc(NC(=O)COC(=O)CCc2ccc(S(=O)(=O)N3CCOCC3)cc2)cc1Cl | inactive: -2.65% | –
Cc1ccc(N2CC(C(=O)N3CCC(C(=O)NC(C)(C)C)CC3)CC2=O)cc1 (configuration not stated) | inactive: -27.6% | –
Cc1ccc(N/C=C/C(=O)c2ccccc2)cc1C | inactive: 3.65% | –
O=C(Cn1cnc2cc([N+](=O)[O-])ccc2c1=O)NCCc1ccc(F)cc1 | inactive: 3.98% | –
N#Cc1ccccc1NC(=O)c1ccc2c(c1)OCO2 | inactive: 15.1% | –
Cc1ccc(N2C(=O)[C@@H]3C(C(=O)C(c4ccccc4)c4ccccc4)=NN[C@@H]3C2=O)cc1 | inactive: -27.7% | –
O=C(CSc1nncn1-c1ccccn1)Nc1cccc(Cl)c1 | inactive: 5.64% | –
CCOC(=O)C1(C)CCCN1C(=O)c1cc(F)ccc1C (configuration not stated) | inactive: -1.19% | –
O=Cc1ccc2ccc3cccnc3c2n1 | inactive: -6.36% | –
Cc1nc2ccc(C(=O)N3CCN(c4ccccc4)CC3)cn2c1N(C)C(=O)CCc1ccccc1 | inactive: 6.11% | –
O=C(CN1CCNC(=O)C1)NCCc1ccc(Cl)cc1Cl | inactive: -5.92% | –
CCOC(=O)N1CCN(Cc2nc3ccc([N+](=O)[O-])cc3c(=O)n2-c2ccc(OC)cc2OC)CC1 | inactive: 16.6% | –
Cc1c(NC(=O)C(C)Sc2ncnc3ccccc23)c(=O)n(-c2ccccc2)n1C (configuration not stated) | inactive: 3.73% | –
Cc1ccc(NC(=S)N(Cc2cccs2)Cc2cc3cc(C)ccc3[nH]c2=O)cc1 | inactive: 14.8% | –
CCCC(=O)Nc1cc(S(=O)(=O)N2CCOCC2)ccc1N1CCCCC1 | inactive: -3.07% | –
CSc1ccccc1OCc1cc(C(=O)NC(C)CCn2cccn2)no1 (configuration not stated) | inactive: 17% | –
CCOc1ccc(NC(=O)CN2C(=O)NC(C)(c3ccc(OC(F)F)cc3)C2=O)cc1 (configuration not stated) | inactive: 15.1% | –
COc1ccc(S(=O)(=O)NC(C)C(=O)NCc2cccnc2)cc1C (configuration not stated) | inactive: 4.4% | –
CCOC(=O)C1(Cc2cccc(OC)c2)CCN(Cc2ccc(OC)c(OC)c2)CC1 | inactive: 13.7% | –
O=C1CCC(C(=O)N2CCc3c(Cl)cccc3C2)CN1CCCN1CCOCC1 (configuration not stated) | inactive: 16.7% | –
COc1cccc(N(C(=O)c2snc(C(N)=O)c2N)C(C(=O)NCc2ccccc2)c2ccc(O)cc2)c1 (configuration not stated) | inactive: 15.9% | –

Structure (SMILES) | growth rescue (activation) | Potency
CC1Cc2cc(/C=C3/SC(=S)N(C)C3=O)ccc2O1 (configuration not stated) | inactive: 1.96% | –
O=C(N/N=C/c1cccc([N+](=O)[O-])c1)c1cnccn1 | inactive: 17.6% | –
Cc1cc(-c2cc(C(=O)O)c3ccccc3n2)c(C)s1 | inactive: 1.76% | –
O=C(N/N=C/c1ccco1)c1cc(-c2ccc(Br)s2)[nH]n1 | inactive: 1.24% | –
CC(C)c1nc(SCC(=O)Nc2nccs2)c2ccccc2n1 | inactive: 15.5% | –
O=C(Nc1nnc([C@H]2C[C@H](O)[C@@H](CO)O2)s1)c1cccc(Cl)c1 | inactive: -4.87% | –
O=C(Nc1ccccc1N1CCOCC1)c1ccccc1NS(=O)(=O)c1ccc(F)cc1 | inactive: 18.8% | –
CCC(C)NC(=O)CCSCCC(=O)NC(C)CC (configuration not stated) | inactive: -5.66% | –
Cc1ccc(-c2nc3c(c(=O)c4ccccc4n3C)c(=O)n2-c2ccccc2)cc1 | inactive: 0.543% | –
CN1CCN(c2ccc(C(=O)c3ccccc3)cc2[N+](=O)[O-])CC1 | inactive: 13.5% | –
N#CC1=C(N)OC2=C(CN(Cc3ccccc3)C/C2=C\c2cccnc2)C1c1cccnc1 (configuration not stated) | inactive: 7.42% | –
COc1cc(OC)c(OC)cc1CNC(=O)c1cc(=O)[nH]c2ccccc12 | inactive: 8.28% | –
O=C(Nc1cnc2sc3c(n2c1=O)CCCC3)c1ccc(F)cc1 | inactive: 20.5% | –
CC1CN(c2nc(Nc3ccccc3F)nc(N)c2[N+](=O)[O-])CC(C)O1 (configuration not stated) | inactive: 25.6% | –
NC(=O)c1ccc(NC(=O)Cc2cccs2)cc1 | inactive: -5.63% | –
COC(=O)C1=CN(Cc2ccc(OC)cc2)C=C(C(=O)OC)C1c1ccc(O)c(OC)c1 | inactive: -13.5% | –
O=C(N/N=C1\CCCc2ccccc21)c1ccccc1Cl | inactive: 15.2% | –
O=C(Nc1cccnc1)C1CC(=O)N(c2ccc(F)cc2)C1 (configuration not stated) | inactive: 0.663% | –
Cc1ccc(C(CC(=O)O)Nc2nc(N3CCOCC3)nc(N3CCOCC3)n2)cc1 (configuration not stated) | inactive: -14.6% | –
Cc1ccc(CSCCNC(=O)c2ccccc2)cc1 | inactive: 22% | –
COc1ccc(N(C(=O)c2snc(C(N)=O)c2N)C(C(=O)NC2CCCC2)c2ccco2)cc1 (configuration not stated) | inactive: 12.2% | –
OCCNCc1cccc(OCc2ccc(Cl)cc2)c1 | inactive: -4.64% | –

Structure (SMILES) | growth rescue (activation) | Potency
CCC(C)NC(=O)c1ccc(CSCc2ccccc2Cl)o1 (configuration not stated) | inactive: 16.7% | –
CC1=C(C)CC(C(=O)NCCc2ccc(F)cc2)C(C(=O)O)C1 (configuration not stated) | inactive: -3.71% | –
CCn1c(-c2cc(-c3ccc(C)cc3)nc3ccccc23)n[nH]c1=S | inactive: 9.07% | –
CC(C)C(OC(=O)c1nsc(Cl)c1Cl)C(=O)NCc1ccccc1 (configuration not stated) | inactive: -2.84% | –
CCN(CC)C1CCS(=O)(=O)C1 (configuration not stated) | inactive: -3.63% | –
CCc1c(C)nc2nncn2c1Nc1cccc(C)c1 | inactive: 31.1% | –
COC(=O)[C@@H]1Cc2c([nH]c3ccccc23)C(C)(C)N1C(=O)CCl | inactive: 5.2% | –
COc1ccc(NC(=O)CN2C(=O)c3ccccc3S2(=O)=O)cc1OC | inactive: -20.8% | –
COc1ccc(N2CCN(C(=O)CSc3nc4ccccc4c(=O)[nH]3)CC2)cc1 | inactive: 15.2% | –
O=[n+]1cc(-c2ccc(Cl)cc2)n([O-])c2c1CCCCC2 | inactive: -11.1% | –
COc1ccc(CCC(=O)Nc2ccc3c(c2)OCO3)cc1OC | inactive: -0.696% | –
CCOC(=O)c1c(/N=C/c2ccc(C)cc2O)sc2c1CCN(C)C2 | inactive: -19.9% | –
CCOC(=O)C1(Cc2cccc(OC)c2)CCCN(Cc2nccn2CC)C1 (configuration not stated) | inactive: -10.2% | –
COc1ccccc1-c1nnc(SCC(=O)NC2CCCCC2)n1N | inactive: 11.3% | –
CCC(C)S(=O)(=O)c1snnc1C (configuration not stated) | inactive: 6.93% | –
N#C/C(=C/c1ccc(N2CCOCC2)o1)C(=O)N1CCOCC1 | inactive: 3.21% | –
O=C(CCCCCNC(=O)c1ccccc1)N/N=C/c1ccc(F)cc1 | inactive: 24.9% | –
CC(NC(=O)c1ccc2ccccc2n1)c1ccc(Br)cc1 (configuration not stated) | inactive: -7.52% | –
CCOC(=O)COc1ccc([N+](=O)[O-])cc1 | inactive: 1.24% | –
CC(O)(c1ccc(F)c(F)c1)c1nc(-c2ccoc2)cs1 (configuration not stated) | inactive: 21.4% | –
COc1ccc(N/C=C/C(=O)c2ccc(Cl)cc2)cc1 | inactive: 4.41% | –
NS(=O)(=O)c1ccc(CNC(=S)Nc2ccc(Cl)c(Cl)c2)cc1 | inactive: 25.1% | –

Structure (SMILES) | growth rescue (activation) | Potency
COCCCn1cc(C(=O)c2ccccc2OCC(=O)Nc2cccc(F)c2)cc(C#N)c1=O | inactive: 4.5% | –
COCCCNc1nc2nonc2nc1N1CCN(Cc2cccc(C)c2)CC1 | inactive: 1.64% | –
Oc1ccc(Nc2nc(-c3ccc(Cl)cc3)nc3ccccc23)cc1 | inactive: -38.8% | –
Cc1ccsc1CN(C)Cc1nc(C2CC2)no1 | inactive: 11% | –
COc1ccc(S(=O)(=O)N2CCC3(CC2)OCCO3)cc1 | inactive: 8.17% | –
CCOc1ccc(C(=O)/C=C/Nc2ccc(S(=O)(=O)Nc3onc(C)c3C)cc2)cc1 | inactive: -13% | –
C=CCn1c(C)nc2c(sc3nc4c(cc32)COC(C)(C)C4)c1=O | inactive: 12.8% | –
CC(=O)Nc1cc(-c2cccc(C(=O)N(C)C)c2)cn2c(-c3cccc(C(F)(F)F)c3)cnc12 | inactive: -2.79% | –
Cc1ccc(-c2nnn(CC(=O)N(CCN3CCOCC3)C(C(=O)NC(C)(C)C)c3ccco3)n2)cc1 (configuration not stated) | inactive: 4.4% | –
CCc1n[nH]c(=S)n1/N=C/c1cc(Br)c(OC)cc1OC | inactive: 22.5% | –
C/C(=N\NC(=O)c1c(C)nc2ccccn12)c1ccc(N2CCOCC2)cc1 | inactive: 1.01% | –
COc1ccc(NC(=O)C2CCC(CNc3c(N4CCCCC4)c(=O)c3=O)CC2)c(OC)c1 (configuration not stated) | inactive: -16.7% | –
Cc1c(NS(=O)(=O)c2cccc(C(=O)NCc3ccccc3)c2)c(=O)n(-c2ccccc2)n1C | inactive: 0.673% | –
COc1cc2[nH]c3c(=O)n(N)c(=O)[nH]c3c2cc1OC | inactive: 6.07% | –
CS(=O)(=O)c1cccc(C(=O)NCc2ccc(F)cc2)c1 | inactive: 8.04% | –
CN1CCCC(OC(=O)c2cccc(Cl)c2)C1 (configuration not stated) | inactive: 5.81% | –
CCOc1ccc(NC(=O)CSc2nc(-c3cccs3)cc(C(F)(F)F)n2)c([N+](=O)[O-])c1 | inactive: 16.3% | –
O=C(CSc1nc2c(c(=O)[nH]1)CCC2)Nc1ccccc1Cl | inactive: 10.1% | –
COc1ccccc1CNC(=O)c1cc(=O)c2ccccc2o1 | inactive: 6.38% | –
